# According to publication PMC4336329 (PLoS ONE, 2015):
# Among all 310,000 compounds or so, about 2,200 (0.71%) showed an effect of 50% or more. The effect is printed as a negative number. Some of the results follow.
# Target: human ether-à-go-go-related gene (hERG) potassium channel (human, UniProt Q12809)
# Assay: primary screen, population patch clamp on CHO cells stably expressing hERG
# Chain of human ether-à-go-go-related gene (hERG) potassium channel (Q12809 whole entry, looked up): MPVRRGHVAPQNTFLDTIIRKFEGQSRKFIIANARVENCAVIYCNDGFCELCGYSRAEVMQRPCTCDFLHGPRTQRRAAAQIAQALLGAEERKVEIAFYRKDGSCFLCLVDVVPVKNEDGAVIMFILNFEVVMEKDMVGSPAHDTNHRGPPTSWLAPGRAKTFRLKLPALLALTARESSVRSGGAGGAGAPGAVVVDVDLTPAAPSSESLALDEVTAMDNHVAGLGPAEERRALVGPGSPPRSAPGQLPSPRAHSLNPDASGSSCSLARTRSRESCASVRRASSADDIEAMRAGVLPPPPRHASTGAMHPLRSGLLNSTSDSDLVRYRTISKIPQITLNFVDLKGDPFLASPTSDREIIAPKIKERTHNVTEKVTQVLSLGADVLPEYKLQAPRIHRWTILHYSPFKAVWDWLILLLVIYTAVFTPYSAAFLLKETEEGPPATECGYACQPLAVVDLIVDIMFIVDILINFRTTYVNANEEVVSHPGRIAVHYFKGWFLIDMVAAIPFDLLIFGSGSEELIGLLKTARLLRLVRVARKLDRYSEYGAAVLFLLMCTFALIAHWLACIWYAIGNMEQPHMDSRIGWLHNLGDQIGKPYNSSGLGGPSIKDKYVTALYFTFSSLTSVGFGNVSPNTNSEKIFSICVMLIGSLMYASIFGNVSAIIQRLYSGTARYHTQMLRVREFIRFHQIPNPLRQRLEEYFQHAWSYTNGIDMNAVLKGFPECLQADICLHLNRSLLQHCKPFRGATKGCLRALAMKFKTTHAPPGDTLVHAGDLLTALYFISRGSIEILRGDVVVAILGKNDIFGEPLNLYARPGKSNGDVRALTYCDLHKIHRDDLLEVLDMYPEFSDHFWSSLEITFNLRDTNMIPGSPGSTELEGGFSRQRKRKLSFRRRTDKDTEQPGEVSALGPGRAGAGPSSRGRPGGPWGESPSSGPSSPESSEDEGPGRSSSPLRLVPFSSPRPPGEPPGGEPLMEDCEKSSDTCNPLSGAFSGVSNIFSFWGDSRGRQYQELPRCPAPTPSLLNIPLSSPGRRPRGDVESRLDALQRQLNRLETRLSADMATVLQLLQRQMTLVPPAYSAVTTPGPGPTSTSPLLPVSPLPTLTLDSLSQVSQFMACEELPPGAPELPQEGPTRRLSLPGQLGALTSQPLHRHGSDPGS
row,Compound,"hERG current change (%, negative = inhibition) at 1uM [%]"
1,COc1ccc(OC)c(NC(=O)CCN2CC(C)CC(C)C2)c1.Cl (stereo not shown),9.11
2,Cc1nnc(N2C(=O)c3oc4ccccc4c(=O)c3C2c2ccco2)s1 (stereo not shown),3.12
3,Cc1nc(NC(=O)c2cccc(-c3cc4ccccc4oc3=O)c2)ccc1Br,11.1
4,Cc1cc2ccccc2n1CCNC(=O)Cc1cccc2ccccc12,20.2
5,CN1C(C(=O)NCc2ccco2)CC2Cn3c(nc4ccccc43)C21 (stereo not shown),13.4
6,Cc1cc(N)ccc1-n1nc2ccccc2n1,3.57
7,COc1ccc(Cn2c(CCC(=O)Nc3ccccc3OC)nc3cccnc32)cc1,1.32
8,CC1CCC(NC(=O)C(NS(=O)(=O)c2cccc3nsnc23)C(C)C)CC1 (stereo not shown),10.3
9,O=C1c2ccccc2C(=O)N1CCCn1ccnc1,16.3
10,COc1ccc(CNCC(O)(c2ccc(Cl)cc2)c2ccc(Cl)cc2)cc1OC,6.91
11,O=C(CSc1ncccn1)NNC(=O)c1ccccc1,10.8
12,CCCCOC(=O)c1ccc(S(N)(=O)=O)o1,1.59
13,CN(Cc1cc([N+](=O)[O-])c2cccnc2c1O)C1CCCCC1,-1.94
14,CCOc1ccc(-c2noc(CCCC(N)=O)n2)cc1OC,10.2
15,O=C(Nc1ccc(F)cc1)NC1CCN(Cc2nnnn2Cc2ccco2)CC1,-11.7
16,O=C(c1cc(C2CC2)nn1-c1ccccc1)N1CCN(S(=O)(=O)c2c(F)cccc2F)CC1,1.9
17,CC(C)NC(=O)CN1C(=O)C(=O)c2ccccc21,5.86
18,Fc1ccc(OCCCn2ccnc2)cc1,14.7
19,CCn1c(SCC(=O)Nc2ccccc2)nc2ccccc2c1=O,14.1
20,C=CCSc1nnc(Cc2cc(=O)[nH]c(=O)[nH]2)n1-c1cc(C)ccc1C,4.89

row,Compound,"hERG current change (%, negative = inhibition) at 1uM [%]"
1,O=S(=O)(c1ccc(F)cc1)N1CCCC(CO)C1 (stereo not shown),-1.09
2,CCOc1ccc(N2C(=O)/C(=C/c3cc(OC)c(OC)c(OC)c3)N(CC(=O)OC)C2=S)cc1,7.14
3,CCOc1cc(C#N)c(NC(=O)c2cccnc2Cl)cc1OCC,4.4
4,O=C(Nc1ccccc1Cl)Oc1ccc2ccccc2c1,4.1
5,Cc1nnc(SCC(=O)Nc2ncc(S(=O)(=O)c3ccc([N+](=O)[O-])cc3)s2)s1,10.9
6,COc1ccc(C)cc1NC(=O)CSc1nc2ccccc2nc1N1CC(C)OC(C)C1 (stereo not shown),18.7
7,CC(=O)c1c(COC(=O)c2ccncc2)nc2ccccc2[n+]1[O-],11.3
8,CCN1CCCC1CNC(=O)c1cc2c(=O)n(C)c3ccccc3c2n1C (stereo not shown),-4.16
9,CCCNc1c(NS(=O)(=O)c2ccc(C3CCCCC3)cc2)c(=O)oc2ccccc12,20.1
10,CN(C)c1ccc(NC(=O)c2ccc3c(c2)nnn3C)cc1,9.27
11,CC1=CC(=C(C#N)C#N)C=C(C)N1Cc1ccc(Cl)cc1,11.9
12,CCN(CC)C(=O)Cn1cc(S(=O)(=O)CC(=O)NC2CCCCC2)c2ccccc21,6.21
13,COC(=O)CNC(=O)c1ccc(NS(=O)(=O)c2cc([N+](=O)[O-])ccc2Cl)cc1,14
14,CS/C(=N\S(=O)(=O)c1ccc(N)cc1)NS(=O)(=O)c1cccs1,3.45
15,CN(c1ccc(OCC(=O)N2CCCCC2)cc1)S(=O)(=O)c1cccs1,0.858
16,CC(=O)c1cc(-c2ccccc2)n(CCC(=O)NCc2cccs2)c1C,0.227
17,Cc1ccccc1OCC(=O)NC(=S)Nc1ccc(S(=O)(=O)NC2CCCCC2)cc1,12.4
18,CN(C)C(=O)Oc1ccc([N+](=O)[O-])cc1,15
19,Cc1cc(C)c[n+](C2=C([O-])c3ccccc3C(=O)/C2=N\S(=O)(=O)c2cccs2)c1,-2.22
20,COc1cc(/C=C/C(=O)OCC(=O)N2CCN(C(=O)c3ccco3)CC2)ccc1O,4.82

row,Compound,"hERG current change (%, negative = inhibition) at 1uM [%]"
1,CC(=O)Oc1ccc2c(=O)oc(-c3ccc([N+](=O)[O-])cc3)nc2c1,-5.62
2,COc1ccc(-c2nn(-c3ccccc3)cc2C(=O)NCC(c2cccs2)N2CCOCC2)cc1 (stereo not shown),2.71
3,CC(C)(C)c1nnc(SCC(=O)c2ccccc2)n(N)c1=O,5.12
4,CCOC(=O)c1c(N)sc(C(=O)N2CCOCC2)c1C,6.02
5,CNc1cncc(C(=O)O)c1,11.5
6,CC1=NOC(=O)/C1=C\c1ccc(-c2cc(Cl)ccc2Cl)o1,13.4
7,CN(C)Cc1ccc(-c2nc3cccc4c3n2CCNC4=O)cc1,-0.249
8,COc1ccc(Br)cc1S(=O)(=O)n1ccnc1C,-4.55
9,NC(=O)Cc1ccc(C(=O)c2ccccc2)s1,14.6
10,CSc1cccc(NC(=S)NN(C)C)c1,4.89
11,CCCC(=O)NC(Nc1ccc(S(=O)(=O)Nc2cc(C)on2)cc1)(C(F)(F)F)C(F)(F)F,18
12,CCn1nnnc1SCCSc1nnnn1CC,8.1
13,CN(C)c1ccc(/C=N/Nc2cc(N3CCOCC3)nc(N3CCOCC3)n2)cc1,5.71
14,CC(=O)Nc1ccc(S(=O)(=O)N2CCC(C(=O)NCCC(=O)NCc3ccccc3)CC2)cc1,17.1
15,C#CCNC(=O)C1=C[C@H](c2ccc(C#C)cc2)C[C@H](OCc2ccc(CO)cc2)O1,10.1
16,COC(=O)c1scc(C)c1S(=O)(=O)Nc1ccc(C)cc1,12.7
17,CCc1ccc(CC2(O)CC(C)N(C)CC2C)cc1 (stereo not shown),2.1
18,Cc1cccc(-c2nnc(SCC(=O)Nc3cc(C)on3)n2C)c1,14.3
